# Results published in the supplement of paper PMC8728848.
# The list shows a part of the results.
# B1: rAAL-H59Q (Agrocybe aegerita), Q6WY08 (protein)
# chain: MQGVNIYNISAGTSVDLAAPVTTGDIVTFFSSALNLNAGAGNPNNTTLNLFAENGAYLLQIAFRLQENVIIFNSRQPDGPWLVEQRVSDVANQFAGIDGKAMVTVFDHGDKYQVVINEKTVIQYTKQISGLTLSLSYNATEETSIFSTVVEAVTYTGLALEHHHHHH
# What was measured:
# Assay in all cases: glycan array binding signal (z-score within array); higher = stronger binding
# Conditions in all cases: glycan notation: IUPAC condensed, linker removed; mutation: H59Q
# GalNAc(b1-4)GlcNAc = target: GalNAc(b1-4)GlcNAc
# How it was run: (§1)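 Glycan array data were curated from 3228 arrays in the Consortium for Functional Glycomics database and kept only where the protein sequence was available. Glycan names were converted to IUPAC-condensed notation, and columns mapping to the same glycan were averaged. The binding signal is a within-array Z-score, averaged across arrays of the same protein sequence at different concentrations or buffers and across linkers. Negative Z-scores can be read as non-binding.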
# [1] = target: GalNAc(b1-4)GlcNAc(b1-2)Man
# How it was run: as §1
# [2] = target: GalNAc(b1-4)GlcNAc(b1-2)Man(a1-3)[GalNAc(b1-4)GlcNAc(b1-2)Man(a1-6)]Man(b1-4)GlcNAc(b1-4)GlcNAc
# How it was run: as §1
# [3] = target: GalNAc(b1-4)GlcNAc(b1-3)GalNAc(b1-4)GlcNAc
# How it was run: as §1
# GalNAc(b1-4)GlcNAc6S = target: GalNAc(b1-4)GlcNAc6S
# How it was run: as §1
# GalNAc(b1-6)GalNAc = target: GalNAc(b1-6)GalNAc
# How it was run: as §1
# GalNAc3S(b1-4)GlcNAc = target: GalNAc3S(b1-4)GlcNAc
# How it was run: as §1
# GalNAc3S(b1-4)GlcNAc3S = target: GalNAc3S(b1-4)GlcNAc3S
# How it was run: as §1
# [4] = target: GalNAc3S(b1-4)[Fuc(a1-3)]GlcNAc
# How it was run: as §1
# GalNAc4S6S(b1-4)GlcNAc = target: GalNAc4S6S(b1-4)GlcNAc
# How it was run: as §1
# GalNAc6S(b1-4)GlcNAc = target: GalNAc6S(b1-4)GlcNAc
# How it was run: as §1
# Glc(a1-4)Glc = target: Glc(a1-4)Glc
# How it was run: as §1
# [5] = target: Glc(a1-4)Glc(a1-4)Glc(a1-4)Glc
# How it was run: as §1
# Glc(a1-6)Glc(a1-6)Glc = target: Glc(a1-6)Glc(a1-6)Glc
# How it was run: as §1
# [6] = target: Glc(a1-6)Glc(a1-6)Glc(a1-6)Glc
# How it was run: as §1
# Glc(b1-4)Glc = target: Glc(b1-4)Glc
# How it was run: as §1
# Glc(b1-6)Glc = target: Glc(b1-6)Glc
# How it was run: as §1
# GlcA(b1-3)Gal = target: GlcA(b1-3)Gal
# How it was run: as §1
# GlcA(b1-3)GlcNAc = target: GlcA(b1-3)GlcNAc
# How it was run: as §1
# GlcA(b1-6)Gal = target: GlcA(b1-6)Gal
# How it was run: as §1
# [7] = target: GlcA3S(b1-3)Gal(b1-4)GlcNAc(b1-2)Man
# How it was run: as §1
# [8] = target: GlcA3S(b1-3)Gal(b1-4)GlcNAc(b1-3)Gal(b1-4)Glc
# How it was run: as §1
# [9] = target: GlcNAc(a1-3)Gal(b1-4)GlcNAc
# How it was run: as §1
# [10] = target: GlcNAc(a1-4)Gal(b1-3)GlcNAc
# How it was run: as §1
# [11] = target: GlcNAc(a1-4)Gal(b1-4)GalNAc
# How it was run: as §1
# [12] = target: GlcNAc(a1-4)Gal(b1-4)GlcNAc
# How it was run: as §1
# [13] = target: GlcNAc(a1-4)Gal(b1-4)GlcNAc(b1-3)Gal(b1-4)Glc
# How it was run: as §1
# [14] = target: GlcNAc(a1-4)Gal(b1-4)GlcNAc(b1-3)Gal(b1-4)GlcNAc
# How it was run: as §1
# [15] = target: GlcNAc(a1-4)Gal(b1-4)GlcNAc(b1-3)Gal(b1-4)GlcNAc(b1-3)Gal(b1-4)GlcNAc
# How it was run: as §1
# [16] = target: GlcNAc(a1-4)Gal(b1-4)GlcNAc(b1-3)Gal(b1-4)[Fuc(a1-3)]GlcNAc(b1-3)Gal(b1-4)[Fuc(a1-3)]GlcNAc
# How it was run: as §1
# [17] = target: GlcNAc(a1-6)Gal(b1-4)GlcNAc
# How it was run: as §1
# [18] = target: GlcNAc(b1-2)Gal(b1-3)GalNAc
# How it was run: as §1
# [19] = target: GlcNAc(b1-2)Man(a1-3)[GlcNAc(b1-2)Man(a1-6)]Man(b1-4)GlcNAc(b1-4)GlcNAc
# How it was run: as §1
# [20] = target: GlcNAc(b1-2)Man(a1-3)[GlcNAc(b1-2)Man(a1-6)]Man(b1-4)GlcNAc(b1-4)[Fuc(a1-6)]GlcNAc
# How it was run: as §1
# [21] = target: GlcNAc(b1-2)Man(a1-3)[GlcNAc(b1-4)][GlcNAc(b1-2)Man(a1-6)]Man(b1-4)GlcNAc(b1-4)GlcNAc
# How it was run: as §1
# [22] = target: GlcNAc(b1-2)Man(a1-3)[GlcNAc(b1-4)][GlcNAc(b1-2)Man(a1-6)]Man(b1-4)GlcNAc(b1-4)[Fuc(a1-6)]GlcNAc
# How it was run: as §1
# [23] = target: GlcNAc(b1-2)[GlcNAc(b1-4)]Man(a1-3)[GlcNAc(b1-2)Man(a1-6)]Man(b1-4)GlcNAc(b1-4)GlcNAc
# How it was run: as §1
# [24] = target: GlcNAc(b1-2)[GlcNAc(b1-4)]Man(a1-3)[GlcNAc(b1-4)][GlcNAc(b1-2)Man(a1-6)]Man(b1-4)GlcNAc(b1-4)GlcNAc
# How it was run: as §1
# [25] = target: GlcNAc(b1-2)[GlcNAc(b1-4)]Man(a1-3)[GlcNAc(b1-4)][GlcNAc(b1-2)[GlcNAc(b1-6)]Man(a1-6)]Man(b1-4)GlcNAc(b1-4)GlcNAc
# How it was run: as §1
# [26] = target: GlcNAc(b1-2)[GlcNAc(b1-4)]Man(a1-3)[GlcNAc(b1-4)][GlcNAc(b1-2)[GlcNAc(b1-6)]Man(a1-6)]Man(b1-4)GlcNAc(b1-4)[Fuc(a1-6)]GlcNAc
# How it was run: as §1
# [27] = target: GlcNAc(b1-2)[GlcNAc(b1-6)]Man(a1-6)[GlcNAc(b1-2)Man(a1-3)]Man(b1-4)GlcNAc(b1-4)GlcNAc
# How it was run: as §1
# [28] = target: GlcNAc(b1-2)[GlcNAc(b1-6)]Man(a1-6)[GlcNAc(b1-2)Man(a1-3)]Man(b1-4)GlcNAc(b1-4)[Fuc(a1-6)]GlcNAc
# How it was run: as §1
# [29] = target: GlcNAc(b1-2)[GlcNAc(b1-6)]Man(a1-6)[GlcNAc(b1-4)][GlcNAc(b1-2)Man(a1-3)]Man(b1-4)GlcNAc(b1-4)GlcNAc
# How it was run: as §1
# GlcNAc(b1-3)Fuc = target: GlcNAc(b1-3)Fuc
# How it was run: as §1
# GlcNAc(b1-3)Gal = target: GlcNAc(b1-3)Gal
# How it was run: as §1
binder,measurement,setting,value
B1,glycan array binding signal (z-score),GalNAc(b1-4)GlcNAc,-0.054
same,glycan array binding signal (z-score),[1],-0.195
same,glycan array binding signal (z-score),[2],-0.078
same,glycan array binding signal (z-score),[3],-0.077
same,glycan array binding signal (z-score),GalNAc(b1-4)GlcNAc6S,-0.023
same,glycan array binding signal (z-score),GalNAc(b1-6)GalNAc,-0.041
same,glycan array binding signal (z-score),GalNAc3S(b1-4)GlcNAc,-0.111
same,glycan array binding signal (z-score),GalNAc3S(b1-4)GlcNAc3S,-0.041
same,glycan array binding signal (z-score),[4],-0.094
same,glycan array binding signal (z-score),GalNAc4S6S(b1-4)GlcNAc,-0.005
same,glycan array binding signal (z-score),GalNAc6S(b1-4)GlcNAc,-0.008
same,glycan array binding signal (z-score),Glc(a1-4)Glc,-0.011
same,glycan array binding signal (z-score),[5],-0.102
same,glycan array binding signal (z-score),Glc(a1-6)Glc(a1-6)Glc,-0.066
same,glycan array binding signal (z-score),[6],-0.039
same,glycan array binding signal (z-score),Glc(b1-4)Glc,-0.121
same,glycan array binding signal (z-score),Glc(b1-6)Glc,-0.131
same,glycan array binding signal (z-score),GlcA(b1-3)Gal,-0.027
same,glycan array binding signal (z-score),GlcA(b1-3)GlcNAc,-0.087
same,glycan array binding signal (z-score),GlcA(b1-6)Gal,-0.064
same,glycan array binding signal (z-score),[7],19.6
same,glycan array binding signal (z-score),[8],12.1
same,glycan array binding signal (z-score),[9],-0.114
same,glycan array binding signal (z-score),[10],-0.085
same,glycan array binding signal (z-score),[11],-0.03
same,glycan array binding signal (z-score),[12],-0.055
same,glycan array binding signal (z-score),[13],-0.059
same,glycan array binding signal (z-score),[14],-0.07
same,glycan array binding signal (z-score),[15],-0.06
same,glycan array binding signal (z-score),[16],-0.048
same,glycan array binding signal (z-score),[17],-0.073
same,glycan array binding signal (z-score),[18],-0.054
same,glycan array binding signal (z-score),[19],-0.054
same,glycan array binding signal (z-score),[20],-0.07
same,glycan array binding signal (z-score),[21],-0.017
same,glycan array binding signal (z-score),[22],-0.01
same,glycan array binding signal (z-score),[23],-0.076
same,glycan array binding signal (z-score),[24],-0.055
same,glycan array binding signal (z-score),[25],-0.088
same,glycan array binding signal (z-score),[26],-0.148
same,glycan array binding signal (z-score),[27],-0.083
same,glycan array binding signal (z-score),[28],-0.041
same,glycan array binding signal (z-score),[29],-0.043
same,glycan array binding signal (z-score),GlcNAc(b1-3)Fuc,-0.087
same,glycan array binding signal (z-score),GlcNAc(b1-3)Gal,-0.129
